Reference: paper PMC11079023
No constants are given. Whether binding was seen depends on the method and setting. For part of these data: Binding seen in cells or lysates may run through a third protein. Some entries that bind do so weakly or less than the wild type. Sequences can lack the tags named with a protein.

Protein sequences, listed by entry. Tags and fused reporters are not part of them.
UniProt Q8S307: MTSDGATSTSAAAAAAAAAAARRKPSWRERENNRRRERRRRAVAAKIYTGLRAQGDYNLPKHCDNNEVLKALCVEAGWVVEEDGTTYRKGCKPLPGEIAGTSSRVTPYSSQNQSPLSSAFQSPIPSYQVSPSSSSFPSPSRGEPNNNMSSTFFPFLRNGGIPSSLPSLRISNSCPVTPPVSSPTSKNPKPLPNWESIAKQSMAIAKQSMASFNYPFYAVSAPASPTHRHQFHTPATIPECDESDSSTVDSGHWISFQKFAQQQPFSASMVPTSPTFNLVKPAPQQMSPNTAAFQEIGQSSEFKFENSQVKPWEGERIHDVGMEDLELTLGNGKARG
UniProt Q93Z00: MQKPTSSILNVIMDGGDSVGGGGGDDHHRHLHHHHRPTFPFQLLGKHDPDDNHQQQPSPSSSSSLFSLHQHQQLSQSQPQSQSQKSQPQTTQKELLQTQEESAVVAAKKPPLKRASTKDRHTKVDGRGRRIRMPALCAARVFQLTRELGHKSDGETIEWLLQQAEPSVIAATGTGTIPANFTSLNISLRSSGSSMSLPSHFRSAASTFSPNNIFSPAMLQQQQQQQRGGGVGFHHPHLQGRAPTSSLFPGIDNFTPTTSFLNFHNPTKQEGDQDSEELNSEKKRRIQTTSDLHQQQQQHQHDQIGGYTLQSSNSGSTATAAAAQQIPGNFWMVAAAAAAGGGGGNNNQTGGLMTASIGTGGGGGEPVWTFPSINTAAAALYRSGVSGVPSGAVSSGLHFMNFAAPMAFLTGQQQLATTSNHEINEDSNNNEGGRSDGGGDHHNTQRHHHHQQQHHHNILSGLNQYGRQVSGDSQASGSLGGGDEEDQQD

Legend:
[1] = biological target: T1, BD-M5RGA^m2 (RGA 199-587 with H471A, Y472A, Y473A, fused to the GAL4 DNA-binding domain) (Arabidopsis) (UniProt Q9SLH3); experiment: two-hybrid; BD-M5DELLA (pGBKT7, RGA 199-587 and variants) and AD-JAZ1, AD-TCP14, AD-IDD2 or AD-BZR1 (pGADT7) co-transformed in yeast AH109; growth on selective medium lacking tryptophan, leucine and histidine, in some cases with 3AT
T1 sequence: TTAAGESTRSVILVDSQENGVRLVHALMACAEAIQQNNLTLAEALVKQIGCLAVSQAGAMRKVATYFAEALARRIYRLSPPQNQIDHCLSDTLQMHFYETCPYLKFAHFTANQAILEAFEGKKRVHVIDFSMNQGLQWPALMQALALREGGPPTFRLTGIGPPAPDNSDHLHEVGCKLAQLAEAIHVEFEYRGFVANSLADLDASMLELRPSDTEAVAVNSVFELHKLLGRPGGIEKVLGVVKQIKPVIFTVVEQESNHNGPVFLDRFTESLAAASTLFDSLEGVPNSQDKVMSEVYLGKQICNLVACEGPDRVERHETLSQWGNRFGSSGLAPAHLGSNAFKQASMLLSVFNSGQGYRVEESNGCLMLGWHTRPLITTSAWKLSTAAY

[2] = biological target: T2, BD-M5RGA (C-terminal part of RGA, amino acids 199 to 587, fused to the GAL4 DNA-binding domain) (Arabidopsis) (UniProt Q9SLH3); experiment: as above
T2 sequence: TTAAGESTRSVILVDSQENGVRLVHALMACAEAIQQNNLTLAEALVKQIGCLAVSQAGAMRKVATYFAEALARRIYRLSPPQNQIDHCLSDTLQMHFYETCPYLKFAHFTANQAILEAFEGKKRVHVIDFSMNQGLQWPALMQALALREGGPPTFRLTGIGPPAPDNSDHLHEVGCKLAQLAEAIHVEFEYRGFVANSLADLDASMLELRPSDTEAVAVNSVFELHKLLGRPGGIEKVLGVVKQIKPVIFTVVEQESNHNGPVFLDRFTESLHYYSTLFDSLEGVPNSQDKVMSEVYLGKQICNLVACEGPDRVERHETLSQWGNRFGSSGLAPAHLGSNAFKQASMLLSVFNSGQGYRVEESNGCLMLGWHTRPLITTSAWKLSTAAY

[3] = biological target: T3, BD-M5RGA^m1 (RGA 199-587 with G218A, V219A, R220A, fused to the GAL4 DNA-binding domain) (Arabidopsis) (UniProt Q9SLH3); experiment: as above
T3 sequence: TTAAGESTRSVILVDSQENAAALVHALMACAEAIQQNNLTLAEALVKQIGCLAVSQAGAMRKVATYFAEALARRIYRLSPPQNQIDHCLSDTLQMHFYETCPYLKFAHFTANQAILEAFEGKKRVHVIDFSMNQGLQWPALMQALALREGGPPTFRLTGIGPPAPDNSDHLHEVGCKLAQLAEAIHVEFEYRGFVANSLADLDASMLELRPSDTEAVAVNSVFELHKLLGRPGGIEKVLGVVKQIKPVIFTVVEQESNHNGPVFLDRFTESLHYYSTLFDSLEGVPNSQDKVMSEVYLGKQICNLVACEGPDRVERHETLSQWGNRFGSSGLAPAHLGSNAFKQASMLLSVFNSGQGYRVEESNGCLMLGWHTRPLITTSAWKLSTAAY

[4] = biological target: T4, BD-M5RGA^m3 (RGA from amino acid 199 with S578Stop, fused to the GAL4 DNA-binding domain) (Arabidopsis) (UniProt Q9SLH3); experiment: as above
T4 sequence: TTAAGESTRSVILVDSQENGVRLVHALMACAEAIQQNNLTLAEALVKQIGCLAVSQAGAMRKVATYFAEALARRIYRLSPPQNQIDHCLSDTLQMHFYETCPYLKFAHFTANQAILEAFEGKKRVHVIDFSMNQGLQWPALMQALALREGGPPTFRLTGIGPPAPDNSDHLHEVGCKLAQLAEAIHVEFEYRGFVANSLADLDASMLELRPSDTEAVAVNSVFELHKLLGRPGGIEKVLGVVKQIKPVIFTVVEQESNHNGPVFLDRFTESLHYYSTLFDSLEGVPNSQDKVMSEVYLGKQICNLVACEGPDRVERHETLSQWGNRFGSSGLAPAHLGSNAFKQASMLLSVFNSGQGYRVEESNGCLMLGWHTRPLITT

[5] = biological target: T5, BD-M5RGA^m4 (RGA 199-587 with S578D, fused to the GAL4 DNA-binding domain) (Arabidopsis) (UniProt Q9SLH3); experiment: as above
T5 sequence: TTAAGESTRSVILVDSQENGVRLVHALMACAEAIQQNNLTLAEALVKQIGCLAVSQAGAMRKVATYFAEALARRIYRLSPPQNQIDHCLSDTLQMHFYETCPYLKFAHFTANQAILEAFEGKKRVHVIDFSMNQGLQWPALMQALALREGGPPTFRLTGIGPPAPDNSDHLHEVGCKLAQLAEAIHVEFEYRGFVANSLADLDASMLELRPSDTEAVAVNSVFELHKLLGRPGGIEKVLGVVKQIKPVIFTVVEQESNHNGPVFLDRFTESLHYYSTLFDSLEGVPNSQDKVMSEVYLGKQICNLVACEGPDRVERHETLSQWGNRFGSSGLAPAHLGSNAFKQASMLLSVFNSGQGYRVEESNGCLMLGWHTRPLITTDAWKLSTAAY

RGA-GFP (Arabidopsis) = biological target: T6, RGA-GFP (Arabidopsis) (UniProt Q9SLH3); experiment: co-IP; protein extracts of N. benthamiana agro-infiltrated leaves (native extraction buffer, Tris-HCl pH 7.5 50 mM, glycerol 10%, nonidet P-40 0.1%); 2 h at 4 °C with anti-GFP paramagnetic beads; co-precipitated RFP fusions detected with anti-RFP
T6 sequence: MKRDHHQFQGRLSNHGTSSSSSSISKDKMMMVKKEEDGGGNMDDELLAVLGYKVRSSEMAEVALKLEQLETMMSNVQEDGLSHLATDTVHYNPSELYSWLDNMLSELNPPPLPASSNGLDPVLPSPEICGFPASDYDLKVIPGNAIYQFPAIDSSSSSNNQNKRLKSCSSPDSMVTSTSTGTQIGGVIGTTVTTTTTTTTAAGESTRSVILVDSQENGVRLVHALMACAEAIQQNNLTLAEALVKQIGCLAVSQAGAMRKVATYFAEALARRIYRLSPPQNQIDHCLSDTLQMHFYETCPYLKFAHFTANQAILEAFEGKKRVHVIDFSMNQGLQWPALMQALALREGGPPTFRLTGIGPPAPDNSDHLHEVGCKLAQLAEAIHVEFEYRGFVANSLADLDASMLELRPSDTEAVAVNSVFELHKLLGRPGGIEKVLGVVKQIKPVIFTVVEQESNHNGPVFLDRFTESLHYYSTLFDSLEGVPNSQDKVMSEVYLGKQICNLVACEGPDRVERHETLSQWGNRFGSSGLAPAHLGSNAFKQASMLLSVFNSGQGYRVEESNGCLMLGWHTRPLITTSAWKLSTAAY

[6] = biological target: T7, BD-RGA^m2 (full-length RGA with H471A, Y472A, Y473A, fused to the GAL4 DNA-binding domain) (Arabidopsis) (UniProt Q9SLH3); experiment: two-hybrid; BD-DELLA (full-length, pGBKT7) and AD-GID1 (pGADT7) co-transformed in yeast AH109; growth on selective medium lacking tryptophan, leucine and histidine supplemented with 100 µM GA3
T7 sequence: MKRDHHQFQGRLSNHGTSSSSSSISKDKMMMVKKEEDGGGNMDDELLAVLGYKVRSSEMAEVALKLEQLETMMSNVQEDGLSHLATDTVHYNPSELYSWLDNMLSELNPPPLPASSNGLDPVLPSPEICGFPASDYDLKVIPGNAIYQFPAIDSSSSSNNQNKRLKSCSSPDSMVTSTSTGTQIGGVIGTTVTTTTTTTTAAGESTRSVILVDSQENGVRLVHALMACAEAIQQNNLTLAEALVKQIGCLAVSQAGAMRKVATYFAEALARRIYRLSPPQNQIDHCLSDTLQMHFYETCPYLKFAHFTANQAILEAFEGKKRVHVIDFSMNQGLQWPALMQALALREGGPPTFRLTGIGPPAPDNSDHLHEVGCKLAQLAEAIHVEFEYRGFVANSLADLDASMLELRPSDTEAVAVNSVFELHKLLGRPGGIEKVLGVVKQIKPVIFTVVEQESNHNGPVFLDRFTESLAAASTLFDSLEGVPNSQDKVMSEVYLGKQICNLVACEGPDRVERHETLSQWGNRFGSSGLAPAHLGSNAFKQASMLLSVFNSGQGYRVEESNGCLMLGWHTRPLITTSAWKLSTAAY

## AD-BZR1 (from UniProt Q8S307 1-336)
[1]
  binding: no binding

## AD-TCP14 (from UniProt Q93Z00 1-489)
[2]
  binding: binds
[3]
  binding: binds
[1]
  binding: no binding
[4]
  binding: no binding
[5]
  binding: no binding

## TCP14-RFP (from UniProt Q93Z00 1-489)
RGA-GFP (Arabidopsis)
  binding: binds

B1: AD-GID1b (receptor, UniProt Q9LYC1 1-358)
chain: MAGGNEVNLNECKRIVPLNTWVLISNFKLAYKVLRRPDGSFNRDLAEFLDRKVPANSFPLDGVFSFDHVDSTTNLLTRIYQPASLLHQTRHGTLELTKPLSTTEIVPVLIFFHGGSFTHSSANSAIYDTFCRRLVTICGVVVVSVDYRRSPEHRYPCAYDDGWNALNWVKSRVWLQSGKDSNVYVYLAGDSSGGNIAHNVAVRATNEGVKVLGNILLHPMFGGQERTQSEKTLDGKYFVTIQDRDWYWRAYLPEGEDRDHPACNPFGPRGQSLKGVNFPKSLVVVAGLDLVQDWQLAYVDGLKKTGLEVNLLYLKQATIGFYFLPNNDHFHCLMEELNKFVHSIEDSQSKSSPVLLTP
[6]
  binding: binds

B2: AD-GID1c (receptor, UniProt Q940G6 1-344)
chain: MAGSEEVNLIESKTVVPLNTWVLISNFKLAYNLLRRPDGTFNRHLAEFLDRKVPANANPVNGVFSFDVIIDRQTNLLSRVYRPADAGTSPSITDLQNPVDGEIVPVIVFFHGGSFAHSSANSAIYDTLCRRLVGLCGAVVVSVNYRRAPENRYPCAYDDGWAVLKWVNSSSWLRSKKDSKVRIFLAGDSSGGNIVHNVAVRAVESRIDVLGNILLNPMFGGTERTESEKRLDGKYFVTVRDRDWYWRAFLPEGEDREHPACSPFGPRSKSLEGLSFPKSLVVVAGLDLIQDWQLKYAEGLKKAGQEVKLLYLEQATIGFYLLPNNNHFHTVMDEIAAFVNAECQ
[6]
  binding: binds
